Source: patent US20240228645A1
Where a chain is given by its changes, count along the chain named.

B1: AB1084 multispecific binding protein (protein, part only; not given: two other binders and format, part only)
VH: EVQLVQSGGGVVQPGRSLRLSCAASGFTFSMYGMHWVRQAPGKCLEWVAVIWYDASNKYYGDSVKGRFTISRDNSKNTLYLQMNSLRDEDTAVYYCARRFTRLRGWYIEDYGLDVWGQGTTVTVSS
VL: EIVLTQSPSSLSASVGDRVTIT[gap - about 80 residues]FGCGTKVEIK
B2: AB1424/AB1612 multispecific binding protein (protein, part only; not given: other binders, Fc, scFv orientation, not shown: another chain or arm of the molecule; a dimerising Fc or GST)
VH: B1 VH with M31S, R102H, W106Q
VL: EIVLTQSPSSLSASVGDRVTIT[gap - about 80 residues]FGCGTKVEIK

What was measured:
[1] = target: human BAFF-R expressed on cells (hBAFF-R-CHO isogenic CHO cells; BAFF-R+ cancer cells) (human) (UniProt Q96RJ3); assay: cell-based or functional assay
[2] = target: cynomolgus monkey BAFF-R expressed on CHO cells (cBAFF-R-CHO) (cynomolgus monkey); assay: cell binding assay, cynomolgus BAFF-R cells
[3] = target: human BAFF-R expressed on cells (hBAFF-R-CHO isogenic CHO cells; BAFF-R+ cancer cells) (human) (UniProt Q96RJ3); assay: ligand blocking assay; competitor BAFF-biotin on CHO cells expressing human BAFF-R
[4] = target: human BAFF-R expressed on cells (hBAFF-R-CHO isogenic CHO cells; BAFF-R+ cancer cells) (human) (UniProt Q96RJ3); assay: cell binding assay, human BAFF-R cells

Binder | Cytolysis, EC50 [1] [nM] | EC50 [2] [nM] | IC50 [3] [nM] | EC50 [4] [nM]
B1 | 0.06 |  |  | 
B2 |  | 1.85 | 6.76 | 3.09
